Certain results were filed several times, with different values. They are shown here; other results are not. The source may hold further records. Values given together seem to repeat one measurement (runs, samples, wells or individuals).
Molecular target: T1, CHOK1 cells engineered to overexpress human CCR2 (Homo sapiens, UniProt P41597)
T1 construct: expressed in transfected cells; host or cells: CHOK1 cells
Test: Antibody dependent cellular cytotoxicity (ADCC) reporter assay (Example 199)
Format: cell-based
Conditions: with anti-cotinine antibody SEQ ID NO: 11/12; CHOK1-human CCR2 target cells, Jurkat FcγRIIIa NFAT-luciferase reporter cells; 12-18 hours; read-out: ADCC Reporter Assay pEC50 (converted)
Experimental: An antibody dependent cellular cytoxicity reporter assay was conducted using the following four assay components: (i) ARM compound of Formula (I) targeting CCR2 (concentrations ranging from 1 pM to 10 μM) (ii) anti-cotinine antibody having a heavy chain sequence of SEQ ID NO: 11 and a light chain sequence of SEQ ID NO: 12 (rabbit variable region with human IgG1 Fc domain containing a DE mutation (S239D/1332E)) (concentrations ranging from 0.01 μg/mL to 200 μg/mL); (iii) target cells: CHOK1 cells engineered to overexpress either human CCR2 (typically 1000-20,000 cells per well) and (iv) reporter cells: Jurkat cells engineered to express FcγRIIIa with the reporter gene luciferase under the control of the NFAT promoter (typically 3000-75,000 cells per well). Reagents were combined in a final volume of 20 μL in a 384-well tissue culture treated plate. […] Luminescence signal was measured on a microplate reader and signal:background was calculated by dividing the signal of a test well by the signal obtained when no heterobivalent compound of Formula (I) was added. […]
ARMs compounds of Formula (I) of the invention were tested for ADCC activity in the above assay in or more experimental runs and the results are shown in Table 3 below. […] The pEC50 value is the negative log of the EC50 value, wherein the EC50 value is the half maximal effective concentration measured in molar (M). […]

SMILES | EC50
CC(C)N(C)[C@@H]1CC[C@H](N2CC[C@H](Nc3ncnc4ccc(C(F)(F)F)cc34)C2=O)[C@H](NC(=O)[C@H]2CC[C@@H](NC(=O)CCCOC[C@H]3CC[C@@H](COCCNC(=O)[C@H]4CC(=O)N(C)[C@@H]4c4cccnc4)CC3)CC2)C1 [Example 61] | 0.01 nM and 0.2 nM [one cell]
CC(C)N(C)[C@@H]1CC[C@H](N2CC[C@H](Nc3ncnc4ccc(C(F)(F)F)cc34)C2=O)[C@H](NC(=O)[C@H]2CC[C@@H](CC(=O)CCCOC[C@H]3CC[C@H](COCCNC(=O)[C@H]4CC(=O)N(C)[C@@H]4c4cccnc4)CC3)CC2)C1 [Example 60] | 0.01 nM and 0.158 nM [one cell]

Reference: patent publication US20250136722A1, “CYTOTOXICITY TARGETING CHIMERAS” (GLAXOSMITHKLINE INTELLECTUAL PROPERTY DEVELOPMENT LIMITED, priority 2021, published 2025)
